About 530 (0.13%) of roughly 410,000 compounds were called active. Inconclusive results, whose numbers are uncertain, are shown with a selection of clear calls. The call rests on the fitted dose curve; in most records, active means well fitted inhibition curve with a large enough effect; inconclusive means small, poorly fitted or top-dose-only effect, or another doubt; inactive means no such curve, though single readings can be large or run the other way. A potency beside an inconclusive call is a rough fit, not a confirmed value.
Assay: qHTS of GLP-1 Receptor Inverse Agonists: Cytotox Screen
Conditions: HEK293 cAMP-luciferase reporter cells, luminescence, 24 h; activity change, negative = inhibition: at 38.3 µM (top of the series) unless noted
Outline: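 Step one: seed cells (200 cells/uL, DMEM with 10% Nu serum, 1% pen-strep). Step two: 12-hour incubation at 37 deg C. Step three: pin 23 nL compound, incubate 24 hr. Step four: add luciferase reagent, read luminescence 12 min later.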
On the % scale 0 is the no-effect control and ±100 the full control effect; potency means the concentration at half of the fitted maximal effect.

Compound	activity change, negative = inhibition	Potency
COc1ccc(NC(=O)CC2C(=O)N(c3ccc(C)cc3)C(=O)N2Cc2cccnc2)cc1 (configuration not stated)	inactive: 3.46%	–
CC(=O)Nc1cccc(/C(C)=N/Nc2ccc(S(=O)(=O)Nc3ccccc3C(=O)O)cc2[N+](=O)[O-])c1	–	inconclusive: 7.08 µM [inhibitor, partial curve, poor fit]
CCn1cc(/C=C(\NC(=O)c2ccccc2F)C(=O)N2CCCC2)c2ccccc21	–	inconclusive: 28.2 µM [inhibitor, single point]
Cc1cccc(OCC(=O)Nc2ccc3c(c2)nc(CCN2CCC(C)CC2)n3C)c1	–	inconclusive: 7.94 µM [inhibitor, partial curve]
CCCCc1ccc(S(=O)(=O)NNC(=S)NCc2ccco2)cc1	–	inconclusive: 15.8 µM [inhibitor, single point]
CCn1cc(CN2CCCC(C(=O)Nc3ccc(-c4nc5ccccc5[nH]4)cc3)C2)c(C)n1 (configuration not stated)	–	inconclusive: 31.6 µM [inhibitor, single point]
CN(C)/C=C/C(=O)/C=C/c1ccc(Cl)cc1	–	inconclusive: 22.4 µM [inhibitor, single point]
COc1cccc(C(=O)NC(=S)N2CCN(c3ccc(C(F)(F)F)cc3[N+](=O)[O-])CC2)c1	–	inconclusive: 5.01 µM [inhibitor, full curve]
COc1ccc(N(Cc2cccs2)C(=O)COc2ccc(C(C)C)cc2)cc1	–	inconclusive: 7.08 µM [inhibitor, partial curve, poor fit]
Cc1ccc(O)c(CNc2cccc3cccnc23)c1	inactive: -8.66%	–
O=C1CC(N(CCc2ccccc2)C(=S)Nc2ccccc2)C(=O)N1c1ccc(Br)cc1 (configuration not stated)	–	inconclusive: 20 µM [inhibitor, single point]
Cc1c(C(c2cccc([N+](=O)[O-])c2O)c2c(C)n(C)n(-c3ccccc3)c2=O)c(=O)n(-c2ccccc2)n1C	–	inconclusive: 1.12 µM [inhibitor, partial curve, poor fit]
Cc1cc2c(cc1C)NC(CC(=O)Nc1ccccc1SC(F)(F)F)C(=O)N2 (configuration not stated)	inactive: 16.4%	–
CN(C(=O)c1ccc(NC(=O)Cc2ccc(NC(=O)C3CCCN(C(=O)C4CC4)C3)cc2)cc1)C1CC1 (configuration not stated)	–	inconclusive: 28.2 µM [inhibitor, partial curve, poor fit]
COc1ccc(-c2oc(NC(=O)CCl)c(C#N)c2-c2ccc(OC)cc2)cc1	–	inconclusive: 8.91 µM [inhibitor, partial curve, poor fit]
CC1CCCCN1C(=O)CSc1nc(C2CC2)nc2ccccc12 (configuration not stated)	–	inconclusive: 4.47 µM [inhibitor, partial curve, poor fit]
CC(C)(O)c1cc2ccccc2c(=O)o1	–	inconclusive: 28.2 µM [inhibitor, single point]
COc1ccc2nc3sc(C(=O)NCCCN4CCc5ccccc5C4)cc3cc2c1	–	inconclusive: 28.2 µM [inhibitor, single point]
COc1ccc(NC(=O)CSc2nnnn2C2CC3C=CC2C3)cc1 (configuration not stated)	–	inconclusive: 1.26 µM [inhibitor, full curve, poor fit]
COc1ccc2oc(C(=O)OCC(=O)N(C)C3CCCCC3)c(C)c2c1	–	inconclusive: 10 µM [inhibitor, partial curve, poor fit]
Cc1ccc(S(=O)(=O)C(C#N)c2nc3ccccc3nc2N2CCN(C)CC2)cc1 (configuration not stated)	inactive: 165%	–
Cc1[nH][nH]c(=O)c1C(c1c(C)[nH][nH]c1=O)c1cn(Cc2cccc3ccccc23)c2ccccc12	–	inconclusive: 12.6 µM [inhibitor, partial curve]
CN(C1=C(N2CCOCC2)C(=O)c2ccccc2C1=O)c1ccccc1	–	inconclusive: 12.6 µM [inhibitor, single point]

Compound	activity change, negative = inhibition	Potency
COc1ccc(NC(=O)C2Cc3c(-c4cccc(NC(C)=O)c4)ccnc3O2)cc1 (configuration not stated)	inactive: -20.6%	–
COc1ccc2cc(-c3[nH]ncc3CN3CCCN(c4ccccc4)CC3)ccc2c1	–	inconclusive: 28.2 µM [inhibitor, single point]
Cc1ccc(/C=C2/SC(=S)N(CCCC(=O)Nc3ccc(O)cc3)C2=O)cc1	inactive: -27.2%	–
Cc1cccc(/C=C/c2onc(C)c2[N+](=O)[O-])n1	–	inconclusive: 7.08 µM [inhibitor, partial curve, poor fit]
COc1ccc(NC(=O)COc2coc(CN3CCc4ccccc43)cc2=O)cc1	inactive: 3.47%	–
COc1cc(C2C3=C(COC3=O)OC(C)(C)Oc3cc4c(cc32)OCO4)cc(OC)c1OC (configuration not stated)	–	inconclusive: 0.891 µM [inhibitor, full curve, poor fit]
CCOC(=O)NC(=S)Nc1ccc(C(C)(C)C)cc1	–	inconclusive: 28.2 µM [inhibitor, partial curve, poor fit]
COc1ccc2c(c1)[nH]c1c(N3CCSCC3)ncnc12	–	inconclusive: 28.2 µM [inhibitor, single point]
CCOC(=O)Nc1ccc2c(c1)ncn2C1CCCCC1	–	inconclusive: 11.2 µM [inhibitor, single point]
OCc1ccc(O)c2ncccc12	–	inconclusive: 10 µM [inhibitor, partial curve]
Cc1nn(CC(=O)N(C)C2CCS(=O)(=O)C2)c(C)c1[N+](=O)[O-] (configuration not stated)	inactive: -9.02%	–
CCOc1cc(CNC2CCCC2)cc(Cl)c1OCc1ccccc1	–	inconclusive: 28.2 µM [inhibitor, single point]
O=C(c1cccs1)N1N=C(c2ccccc2)CC1c1ccccc1 (configuration not stated)	–	inconclusive: 5.01 µM [inhibitor, partial curve]
C=C(C)C1CC=C(C)/C(=N/Nc2ccccc2[N+](=O)[O-])C1 (configuration not stated)	inactive: -15.1%	–
COC(=O)c1cc(Sc2c(Cl)cccc2Cl)ccn1	inactive: -8.42%	–
CC1=C/C(=N\OS(=O)(=O)c2ccccc2)C(C(C)C)=CC1=O	–	inconclusive: 10 µM [inhibitor, partial curve]
CCOc1cc(/C=N/O)cc(Br)c1OCc1ccc(Cl)cc1	–	inconclusive: 10 µM [inhibitor, partial curve]
C=CCOc1ccc(C(=O)/C=C2/C(=O)Nc3ccccc32)cc1	inactive: -16%	–
CC[C@@H](C)[C@H](CNC)NC[C@@H](Cc1cccc2ccccc12)NCCc1cccc(C(F)(F)F)c1	inactive: 11.6%	–
Nc1c(/C=C2\C=Nc3ccccc32)c(=O)nc2sc(CC(=O)N3CCOCC3)nn12	–	inconclusive: 28.2 µM [inhibitor, single point]
Cc1ccc2nnc(Cl)n2n1	inactive: 1.02%	–
Cc1cccc(C)c1NC(=S)/C(=C(\[O-])c1cccs1)[n+]1ccccc1	inactive: 4.3%	–
CC(C)C(=O)N1CCN(c2ccc(NC(=O)c3ccc([N+](=O)[O-])o3)cc2)CC1	–	inconclusive: 28.2 µM [inhibitor, single point]

Compound	activity change, negative = inhibition	Potency
c1ccc2c(CCNc3ncnc4nc[nH]c34)cccc2c1	–	inconclusive: 8.91 µM [inhibitor, partial curve, poor fit]
Cc1cccc2sc(N(CCCN(C)C)C(=O)CCS(=O)(=O)c3ccccc3)nc12	–	inconclusive: 10 µM [inhibitor, partial curve]
COc1ccc(C(=O)Nc2cccc(S(=O)(=O)N3CCCC3)c2)cc1S(=O)(=O)N1CCOCC1	–	inconclusive: 10 µM [inhibitor, single point]
CCCCOc1ccc(NC2=NC3(CCCCC3)N=C(N)N2)cc1	–	inconclusive: 28.2 µM [inhibitor, single point]
O=C(CSc1nc(-c2ccco2)cc(C(F)(F)F)n1)Nc1ccc2c(c1)OCO2	–	inconclusive: 2 µM [inhibitor, partial curve, poor fit]
O=C(COC(=O)c1ccccc1OCc1ccccc1Cl)NCC1CCCO1 (configuration not stated)	inactive: 1.18%	–
CC(NC(=S)Nc1ccc(OC(F)F)cc1OC(F)F)C(C)(C)C (configuration not stated)	–	inconclusive: 28.2 µM [inhibitor, single point]
CCC(C)c1ccccc1NC(=O)CN(C)CCOc1ccc(Cl)cc1 (configuration not stated)	inactive: -21.4%	–
CCOc1ncccc1C(=O)OCC(=O)NCc1cccs1	inactive: 0.0025%	–
O=C(CNC(=O)c1ccco1)NCc1nc2ccccc2[nH]1	–	inconclusive: 28.2 µM [inhibitor, single point]
O=C(OCc1ccccc1)N1CCC2CC1c1cc(-c3cc4ccccc4o3)ccc12 (configuration not stated)	inactive: -1.81%	–
COc1ccc2oc(C(=O)OCC(=O)N(C)Cc3ccccc3)c(C)c2c1	inactive: 17.8%	–
COc1ccc(Cl)cc1NC(=O)c1ccc2c(c1)CCN2S(C)(=O)=O	inactive: -6.27%	–
CCC(CC)COC(=O)C1=C(C)NC(=O)NC1c1ccc([N+](=O)[O-])cc1 (configuration not stated)	–	inconclusive: 28.2 µM [inhibitor, single point]
Cc1cc(Br)ccc1NC(=S)NCCc1ccccc1	–	inconclusive: 11.2 µM [inhibitor, single point]
CCOc1ccc(/C=N/n2c(C)nc3ccccc3c2=O)cc1	–	inconclusive: 20 µM [inhibitor, single point]
COc1cccc(-c2cc3nc4c(c(NCC(C)(C)CN(C)C)n3n2)CCCC4)c1	–	inconclusive: 12.6 µM [inhibitor, single point]
O=C(CC1S/C(=N/N=C2CCCCCC2)NC1=O)Nc1ccccc1F (configuration not stated)	–	inconclusive: 11.2 µM [inhibitor, partial curve, poor fit]
Oc1ccc(Nc2nc(NCC3CCCO3)c3ccccc3n2)cc1 (configuration not stated)	–	inconclusive: 11.2 µM [inhibitor, single point]
O=C(NC(=S)Nc1cccnc1)c1cccc(Br)c1	–	inconclusive: 12.6 µM [inhibitor, single point]
CCSC1=NC(=O)/C(=C2/C=Cc3ccccc3N2CC)S1	–	inconclusive: 1.26 µM [inhibitor, full curve]

Source: PubChem BioAssay AID624418 (National Center for Advancing Translational Sciences (NCATS), 2012)
